# Test results from patent US9073916B2, “Prodrug forms of kinase inhibitors and their use in therapy” (AUCKLAND UNISERVICES LIMITED, priority 2009, dated 2015).
# Experiment: Chemical stability by HPLC
# Conditions: 24 h in α-MEM at 37° C.
smiles,measurement,value
"Cn1cnc([N+](=O)[O-])c1C[N+](C)(C)C/C=C/C(=O)Nc1ccc2ncnc(Nc3cccc(Br)c3)c2c1.[Br-] [Compound 20, (2E)-4-{[4-(3-bromoanilino)-6-quinazolinyl]amino}-N,N-dimethyl-N-[(1-methyl-4-nitro-1H-imidazol-5-yl)methyl]-4-oxo-2-buten-1-ammonium bromide]",release of effector 11 by HPLC,No release of effector 11 was observed
